Reference: article PMC3297578
Results are given in words; binding and its absence hold for the method and conditions named. In cells and extracts the contact can be indirect. Some entries that bind do so weakly or less than the wild type. Where a sequence is shown, tags or fusion partners need not be part of it.

By UniProt entry, the sequences of proteins in these tests, tags left out.
UniProt Q11107: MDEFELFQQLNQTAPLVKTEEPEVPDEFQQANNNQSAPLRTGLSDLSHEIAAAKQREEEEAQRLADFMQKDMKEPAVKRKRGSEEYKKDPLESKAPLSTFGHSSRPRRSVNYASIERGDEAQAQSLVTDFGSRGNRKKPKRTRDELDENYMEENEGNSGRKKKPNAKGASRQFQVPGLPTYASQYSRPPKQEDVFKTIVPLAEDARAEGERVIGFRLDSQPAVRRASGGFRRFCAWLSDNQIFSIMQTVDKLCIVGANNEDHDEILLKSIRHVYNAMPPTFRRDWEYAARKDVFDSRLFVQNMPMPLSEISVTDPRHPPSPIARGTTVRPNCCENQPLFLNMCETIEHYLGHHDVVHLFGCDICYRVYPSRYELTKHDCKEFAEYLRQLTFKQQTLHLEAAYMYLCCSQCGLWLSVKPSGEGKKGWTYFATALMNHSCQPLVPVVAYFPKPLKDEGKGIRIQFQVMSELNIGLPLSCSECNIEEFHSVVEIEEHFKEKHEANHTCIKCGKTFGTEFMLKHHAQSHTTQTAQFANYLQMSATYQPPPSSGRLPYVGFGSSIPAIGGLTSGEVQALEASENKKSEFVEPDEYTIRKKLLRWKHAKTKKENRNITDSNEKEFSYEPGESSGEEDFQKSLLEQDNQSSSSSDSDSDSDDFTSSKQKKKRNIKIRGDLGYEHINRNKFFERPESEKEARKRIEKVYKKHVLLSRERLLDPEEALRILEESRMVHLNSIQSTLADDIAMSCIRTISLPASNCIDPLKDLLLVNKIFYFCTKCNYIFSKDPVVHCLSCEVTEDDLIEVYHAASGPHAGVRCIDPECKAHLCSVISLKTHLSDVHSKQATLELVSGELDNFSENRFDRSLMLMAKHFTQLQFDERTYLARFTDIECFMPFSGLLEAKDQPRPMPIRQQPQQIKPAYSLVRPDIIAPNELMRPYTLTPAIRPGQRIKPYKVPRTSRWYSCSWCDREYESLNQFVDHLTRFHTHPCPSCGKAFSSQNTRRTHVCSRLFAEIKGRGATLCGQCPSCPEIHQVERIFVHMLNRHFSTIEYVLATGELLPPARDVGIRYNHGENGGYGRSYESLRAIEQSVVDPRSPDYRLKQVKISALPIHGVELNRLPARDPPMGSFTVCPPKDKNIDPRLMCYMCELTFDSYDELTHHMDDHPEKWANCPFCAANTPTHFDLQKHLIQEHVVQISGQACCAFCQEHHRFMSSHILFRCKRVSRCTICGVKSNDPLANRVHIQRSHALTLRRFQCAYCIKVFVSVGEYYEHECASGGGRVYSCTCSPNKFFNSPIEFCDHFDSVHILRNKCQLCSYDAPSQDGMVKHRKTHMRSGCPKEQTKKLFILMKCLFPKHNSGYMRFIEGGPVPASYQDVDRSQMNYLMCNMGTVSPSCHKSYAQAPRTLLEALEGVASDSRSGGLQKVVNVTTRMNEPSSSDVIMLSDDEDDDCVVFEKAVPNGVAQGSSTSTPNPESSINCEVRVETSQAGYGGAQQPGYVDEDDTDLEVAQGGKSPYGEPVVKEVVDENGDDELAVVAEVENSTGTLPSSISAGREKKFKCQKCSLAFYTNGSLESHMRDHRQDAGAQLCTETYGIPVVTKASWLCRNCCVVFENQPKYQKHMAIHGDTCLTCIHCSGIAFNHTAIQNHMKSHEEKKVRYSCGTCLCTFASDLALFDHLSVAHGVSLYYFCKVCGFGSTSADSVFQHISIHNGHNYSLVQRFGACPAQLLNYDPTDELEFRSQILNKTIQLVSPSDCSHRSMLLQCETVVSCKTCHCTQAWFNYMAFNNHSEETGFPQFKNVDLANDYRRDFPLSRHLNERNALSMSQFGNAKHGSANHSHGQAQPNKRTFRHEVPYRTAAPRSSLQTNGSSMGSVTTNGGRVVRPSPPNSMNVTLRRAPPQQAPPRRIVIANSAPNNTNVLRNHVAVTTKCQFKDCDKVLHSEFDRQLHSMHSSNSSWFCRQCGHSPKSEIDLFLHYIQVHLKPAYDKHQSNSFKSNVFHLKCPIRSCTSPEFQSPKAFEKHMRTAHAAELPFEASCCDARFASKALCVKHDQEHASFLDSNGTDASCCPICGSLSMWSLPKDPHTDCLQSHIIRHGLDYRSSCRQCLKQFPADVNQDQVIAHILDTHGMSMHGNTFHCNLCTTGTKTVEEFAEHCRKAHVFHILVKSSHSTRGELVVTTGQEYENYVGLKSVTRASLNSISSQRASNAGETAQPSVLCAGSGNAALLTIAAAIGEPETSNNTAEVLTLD

Tests used:
Assay in all cases: co-IP; anti-GFP immunoprecipitation from 50 ul packed embryos coexpressing a GFP fusion and a 3xFLAG fusion; eluted by boiling in sample buffer; Western with anti-GFP and M2 anti-FLAG
[1] = biological target: T1, HPL-2::GFP (C. elegans) (UniProt G5EDE2)
T1 sequence: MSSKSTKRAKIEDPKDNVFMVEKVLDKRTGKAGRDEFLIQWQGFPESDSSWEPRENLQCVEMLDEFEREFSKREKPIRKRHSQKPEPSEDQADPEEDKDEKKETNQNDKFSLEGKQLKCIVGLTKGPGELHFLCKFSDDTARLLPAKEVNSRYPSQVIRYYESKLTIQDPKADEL

[2] = biological target: LIN-13::GFP (C. elegans) (UniProt Q11107)
[3] = biological target: T2, LIN-61::GFP (C. elegans) (UniProt B2D6M2)
T2 sequence: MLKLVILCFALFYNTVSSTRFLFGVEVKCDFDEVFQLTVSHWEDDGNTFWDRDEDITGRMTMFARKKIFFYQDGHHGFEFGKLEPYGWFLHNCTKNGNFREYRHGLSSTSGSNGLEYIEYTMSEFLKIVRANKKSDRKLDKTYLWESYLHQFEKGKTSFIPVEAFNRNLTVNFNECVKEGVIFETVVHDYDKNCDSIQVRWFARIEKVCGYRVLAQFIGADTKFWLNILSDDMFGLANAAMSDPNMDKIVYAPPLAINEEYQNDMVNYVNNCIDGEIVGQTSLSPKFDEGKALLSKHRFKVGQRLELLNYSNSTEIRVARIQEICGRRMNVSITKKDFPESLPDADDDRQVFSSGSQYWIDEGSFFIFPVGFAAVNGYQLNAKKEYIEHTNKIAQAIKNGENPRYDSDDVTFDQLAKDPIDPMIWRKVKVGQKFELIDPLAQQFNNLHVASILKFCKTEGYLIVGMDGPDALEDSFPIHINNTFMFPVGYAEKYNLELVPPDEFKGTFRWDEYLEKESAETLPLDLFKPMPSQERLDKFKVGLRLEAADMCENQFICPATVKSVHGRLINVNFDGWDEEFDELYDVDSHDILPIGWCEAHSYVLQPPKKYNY

B1: LIN-61::3xFLAG (protein, UniProt B2D6M2 1-612)
chain: T2 sequence
[1]
  binding: binds
[2]
  binding: binds
[3]
  binding: binds

B2: LIN-54::3xFLAG (protein, UniProt Q95QD7 1-435)
chain: MNQGEIVYQDDDDYYDESEIYDNYEEGAEFIEVNGQLVPHNPNLQAQQNRPGTSSMIQQHNRSMEVNQGLVKDEPIDTSSHRVYVPPPRPVQRKLFQPGPSTPGSSQYTVRNLSNLSGSPSMYDRQPASLPRTVQPMGLEMGNSEQRKVYIDMKDHVSHIRLKTKKKVFAPGQRKPCNCTKSQCLKLYCDCFANGEFCRDCNCKDCHNNIEYDSQRSKAIRQSLERNPNAFKPKIGIARGGITDIERLHQKGCHCKKSGCLKNYCECYEAKVPCTDRCKCKGCQNTETYRMTRYKNSGGAVSNTNALMSLTNASSTATPDSGPGSVVTDEHGDDYEDMLLSHKPKVEMDPRRFPWYYMTDEVVEAATMCMVAQAEEALNYEKVQTEDEKLINMEKLVLREFGRCLEQMITNTTELTQDLDAAPTDDIPGPSTSTS
[1]
  binding: binds weakly
[2]
  binding: no binding
[3]
  binding: no binding
